Source: PubChem BioAssay AID1508623 (National Center for Advancing Translational Sciences (NCATS), 2021)
Out of some 48,000 compounds screened, about 450 (0.94%) were called active. Inconclusive results (about 19%) are left out. Calls follow the shape of the dose curve; as a rule, active = well fitted inhibition curve with a large enough effect; inconclusive = small, poorly fitted or top-dose-only effect; inactive = no such curve, though single readings can be large or run the other way. This is one part of the list.

Assay: Primary qHTS for Identification of Small Molecule Inhibitors of Huntingtin Promoter Activity; also: nearly all actives have a fitted effect of over 50% in size
Details: HEK293 HTT promoter firefly luciferase reporter (activity 0% = vehicle and -100% = no light), 24 h; series mostly up to 57.5 µM; activity change, negative = inhibition: at the top concentration
How it was run: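 Firefly luciferase signal from promoter-reporter HEK293 cells was scaled between vehicle (0%) and zero RLU (-100%). Compounds were tested at final concentrations of up to 57.5 uM over 24 h at 37 degrees C. PTC124 at 50 uM final served as control inhibitor.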

Activity change, negative = inhibition, inactive:
Cc1ccc(NC(=O)C2CCCN(c3ncnc4c3nc3n4CCCCC3)C2)c(Br)c1 (stereo not drawn) -8.86% [at 11.5 µM]
CC(C)(C)c1ccc(C(=O)NCC(=O)OCc2cc(=O)n3nc(C4CC4)sc3n2)cc1 -27.7%
COc1ccc(Cl)cc1NCc1nnc2n1CCCCC2 -11.7%
COc1ccc(NC(=O)c2oc3ccccc3c2NC(=O)c2cc(=O)c3cc(Cl)ccc3o2)cc1 7.24%
COC(=O)c1c(NC(=O)c2ccc(OC)cc2OC)sc2c1CCCCC2 -6.34% [at 11.5 µM]
CCOc1ccc2nc(NC(=O)c3nc(SCc4ccccc4F)ncc3Cl)sc2c1 -9.18%
Cc1cc(C)cc(-n2c(SCC(=O)Nc3ccccc3)nc3c(oc4ccccc43)c2=O)c1 -14.5%
COc1ccc2c(CNCc3cccs3)c(C(=O)O)n(Cc3ccc(F)cc3)c2c1 -25.9%
CC(C)Cn1cc(NC(=O)N2CCN(c3ccc(F)cc3)CC2)c2ccccc2c1=O -6.45%
CC(=O)c1ccc(NC(=O)CSC2=Nc3ccccc3N=C(c3ccc(F)cc3)C2)cc1 -2.39%
CCCCn1c(=O)n(CC2CCC(C(=O)NCCCOC)CC2)c(=O)c2sccc21 (stereo not drawn) 5.67%
COc1cc(OC)cc(-c2nc3nc(C)c(CCC(=O)Nc4cc(C)cc(C)c4)c(C)n3n2)c1 -11.5%
CCC(Cc1ccccc1)NC(=O)Cn1nc(C)n2c(cc3occc32)c1=O (stereo not drawn) -10.3%
O=C(NCc1ccc(Cl)cc1)C1CCN(S(=O)(=O)c2cccc3nonc23)CC1 -17%
CC(=O)c1cccc(NC(=O)c2sc(-n3nc(C)c(Cc4ccccc4)c3C)nc2C)c1 -26.5%
CCCS(=O)(=O)N1CC(=O)N(c2cccc(Cl)c2)C(C)(C(=O)NC2CCCCC2)C1 (stereo not drawn) -3.91%
CCCCN(C)CC(O)Cn1cc(/C=C/C(=O)c2ccc(Br)cc2)c2ccccc21 (stereo not drawn) -17%
Cc1cc(=O)[nH]c2nnc(SCc3ccc(Cl)cc3Cl)n12 -13.5%
Cc1ccc2c(CNC3CCCCC3)c(C(=O)O)n(Cc3ccc(F)cc3)c2c1 -14.8%
COCCNC(=O)c1ccc2c(c1)N(Cc1cc(C)ccc1C)C(=O)c1ccccc1S2=O (stereo not drawn) -19.4%
Cc1ccc2nc(COc3cccc(NC(=O)Nc4ccc(C)c(Cl)c4)c3)cc(=O)n2c1 28.4%
O=C(Cn1c(SCc2ccc(F)cc2)nc2cccnc21)Nc1ccccc1F 2.41%
COc1cccc2cc(-c3nc(-c4ccccc4F)no3)c(=O)oc12 15.3%
CC(=O)OCC(=O)[C@@]1(O)[C@H](C)C[C@H]2[C@@H]3C=C(C)C4=Cc5c(cnn5-c5ccccc5)C[C@]4(C)[C@@H]3[C@@H](O)C[C@@]21C -19.7%
O=C(Nc1ccc(F)c(Cl)c1)c1ccc2c(Cl)c3c(nc2c1)CCCC3 -11.7%
CCOc1ccccc1CNC(=O)c1cc2c(=O)n(Cc3cccnc3)ccc2nc1C -16.6%
Cc1ccc(CNC(=O)C2CCN(S(=O)(=O)c3cccc4nonc34)CC2)cc1 -6.88%
COc1ccccc1NC(=O)CSc1nnc(NC(=O)NC2CCCCC2)s1 -2.25%
Cc1nn(-c2ccccc2)c2c1cc1c(=O)[nH]c(=O)nc-1n2-c1cccc(Cl)c1 -6.86%
COc1ccccc1/C=C/c1nc(C#N)c(N2CCN(C)CC2)o1 5.74%
Cc1cc(=O)c2cc(C(=O)Nc3ccc(C)c(C)c3)ccc2[nH]1 23.1%
CCc1ccc(NCc2cc3cc4c(cc3n(CC(=O)Nc3ccccc3OC)c2=O)OCCO4)cc1 -13%
Cc1cc(NC(=O)Nc2nnc(N(C)C3CCCCC3)s2)ccc1Br -9.19%
CN1C(=O)c2ccccc2C1=O 8.33% [at 116 µM]
Cc1cccc(NC(=O)Cn2ncc3c4ccccc4n(Cc4ccccc4)c3c2=O)c1C -2.99%
Cc1ccc(S(=O)(=O)CCC(=O)Nc2ccc(OC(F)(F)F)cc2)cc1 -12.1%
CCOC(=O)O[C@]1(C(=O)OCCl)CC[C@H]2[C@@H]3CCC4=CC(=O)C=C[C@]4(C)[C@H]3[C@@H](O)C[C@@]21C 9.78%
CCc1ccccc1NC(=O)Cn1c(=O)n(CCCCCC(=O)NCc2ccc(C)cc2)c(=O)c2sccc21 -23.2%
CCC(Sc1nc2ccncc2[nH]1)C(=O)Nc1cc(Cl)ccc1C (stereo not drawn) -26.2%
COc1cc(Cl)c(C)cc1NC(=O)CSc1nc2c(c(=O)[nH]1)CCC2 -13.9%
CCc1ccc(S(=O)(=O)c2nnn3c2nc(N2CCOCC2)c2sccc23)cc1 1.11%
Cc1ccc(N2CC(c3nc(-c4ccc(Cl)cc4)no3)CC2=O)cc1F (stereo not drawn) 12.9%
Cc1cc(N2CCC(C(=O)Nc3ccc(F)cc3C)CC2)n2nc(C)c(-c3ccc(Cl)cc3)c2n1 8.04%
Cc1cc(-c2ccccc2)n2nc(-c3ccc(Cl)cc3)cc2n1 -6.85%
Cc1cc(Br)ccc1NC(=O)C1CCCN(S(=O)(=O)c2cccc3nonc23)C1 (stereo not drawn) -29.2%
COc1ccc2cc3cc(C(=O)Nc4cc(C)c(Cl)cc4OC)oc3nc2c1 -1.96%
COc1ccc(NC(=O)CSc2oc(-c3ccc(F)cc3)nc2S(=O)(=O)c2ccc(C)cc2)c(OC)c1 -7.12%
COc1cc(Cl)c(NC(=O)c2cc(S(=O)(=O)N3CCCCC3)c[nH]2)c(OC)c1 -19.6%
Cc1sc2c(c1C)c(=O)n(-c1ccc(Cl)cc1)c(=O)n2Cc1cc(=O)n2cc(Br)ccc2n1 -0.0974%
CCOC(=O)c1c(S(=O)(=O)N2CCCC(C(=O)NCc3ccccc3Cl)C2)c(C)n(C)c1C (stereo not drawn) -18.1%
CCOc1ccccc1NC(=O)CSc1nc2c(sc3ccccc32)c(=O)n1CCCC(=O)NC1CCCC1 -25.2%
COc1cc(NC(=O)C2CCN(S(=O)(=O)c3ccc4c(c3)CCCC(=O)N4)CC2)cc(OC)c1 -16.4%
COc1cccc(CNC(=O)c2ccc(CNS(=O)(=O)c3ccc(C)cc3)cc2)c1 -13.5%
CCN(c1ccccc1)S(=O)(=O)c1nnc(NC(=O)c2ccccc2)s1 -15.5%
O=C(Nc1ccccc1)N(Cc1c[nH]c2ccccc12)C1CCCCCC1 28.1%
Cc1cccc(N2CCN(C(=O)c3cnn(-c4ccccc4Cl)c3C3CCN(C(=O)OC(C)(C)C)CC3)CC2C)c1 (stereo not drawn) -3.88%
COc1ccc(S(=O)(=O)NCCc2sc(-c3cccnc3)nc2C)c(F)c1 -8.64%
CCc1ccc(C2c3c(oc4ccc(F)cc4c3=O)C(=O)N2CCc2ccc(OC)cc2)cc1 (stereo not drawn) -11.6%
COc1ccc(CNCCCSc2nnnn2-c2ccccc2)cc1 -18.5%
CC1CCc2c(sc3nnn(CCCCOc4ccc(Cl)cc4)c(=O)c23)C1 (stereo not drawn) 4.98%
Cc1ccc(CNC(=O)Cn2c(=O)ccc3cc(S(=O)(=O)N4CCC(C)CC4)ccc32)cc1 -23.6%
COc1ccc(-c2cc(C(=O)NC(C)c3ccccc3)c3cc(C(C)C)ccc3n2)cc1 (stereo not drawn) -13.6%
CCOC(=O)c1c(NC(=O)c2cc(OCC)c(OCC)c(OCC)c2)sc2c1CCCCC2 -1.11%
CCN(CC)CCNC(=O)C(=O)NCC(c1cccnc1)N1CCN(c2ccc(F)cc2)CC1 (stereo not drawn) -9.18%
O=C(Nc1ccccc1C(F)(F)F)c1cc(-c2ccc3c(c2)OCCO3)on1 74.6%
Cc1c(Cl)cccc1NC(=O)CNS(=O)(=O)c1cccs1 5.14%
Cc1ccc(C2CCN(C(=O)Nc3ccc(Cl)cc3)C2)cc1 (stereo not drawn) 15.8%
Cc1cc(=O)[nH]c2nnc(SCc3c(F)cccc3Cl)n12 -19.7%
CCOc1ccc2c(c1)sc1nc(=O)n(-c3ccc(Cl)c(Cl)c3)c(=O)n12 29.1%
CCOC(=O)CCn1cnc2onc(-c3cc(OC)ccc3Cl)c2c1=O -23.5%
COc1ccc(N(CC(C)C)S(=O)(=O)c2nnc(NC(=O)c3cccs3)s2)cc1 -8.7%
CCCCCCCCCCCCCCC[C@H](O)[C@@H](N)CO 3.29%
Cc1cccc(NC(=O)c2ccc3c(O)c(S(=O)(=O)c4ccccc4)c(=O)[nH]c3c2)c1C -4.85%
O=C(Nc1ccc2nc(SCC(=O)N3CCc4ccccc43)sc2c1)c1cccc(F)c1 -27.1%
COc1ccc(Cl)cc1NC(=O)CSc1nc2ccccc2c2nc(-c3ccccc3)nn12 5.42%
Cc1ccccc1-c1nc(CS(=O)(=O)CC(=O)NCCc2ccccc2)c(C)o1 -15.1%
Clc1cc(Cl)cc(CNc2ncncc2-c2ccc3c(c2)OCO3)c1 -33.1%
CS(=O)(=O)NCC(c1ccco1)N1CCN(c2ccc(F)cc2)CC1 (stereo not drawn) -6.69%
COCCNC(=O)CCn1c(=O)c2cc(OC)c(OC)cc2n(CC(=O)Nc2ccccc2C)c1=O -18%
O=S(=O)(c1ccc(-c2cc(C(F)(F)F)on2)s1)N1CCN(c2ccccc2)CC1 9.25%
COc1ccc(S(=O)(=O)N2CCN(Cc3ccc4c(c3)OCO4)CC2)cc1C -22.6%
CCOC(=O)c1cnc2c(Cl)cc(Cl)cc2c1Nc1cc(C(=O)O)ccc1C -15.9%
Cc1cccc(C)c1NC(=O)C(=O)NCC(c1ccc2c(c1)OCO2)N1CCOCC1 (stereo not drawn) -26.4%
COCCCn1c(=N)c(C(=O)NCc2ccco2)cc2c(=O)n3cccc(C)c3nc21 0.405%
CCOC(=O)c1c(NC(=O)COc2ccc(Br)cc2)sc2c1CCCC2 -0.519%
CCc1ccc(S(=O)(=O)c2nnn3c2nc(Nc2ccc(C)c(Cl)c2)c2sccc23)cc1 0.29%
O=C(Cn1ncn2nc(-c3cccs3)cc2c1=O)NCc1ccc(Cl)cc1 -1.41%
CCOC(=O)CN1C(C(=O)c2ccccc2)=C(OC(=O)C(C)(C)C)c2ccccc2S1(=O)=O 5.5%
CC(=O)Nc1cc(C(=O)NCc2ccc(C)cc2)ccc1S(=O)(=O)c1ccc(Cl)cc1 -18.8%
CSc1cccc(NC(=O)Cn2c(=O)n(Cc3ccccc3)c(=O)c3sc4ccccc4c32)c1 -15.2%
Cc1cc(C)n(-c2nc3cc(Cl)ccc3nc2Nc2ccc(C)c(F)c2)n1 -9.03%
CCn1ccc2cc(S(=O)(=O)N3CCC(C(=O)NCc4cccc(Cl)c4)CC3)ccc21 -20.8%
Cc1ccc(-n2ncc(C(=O)NCCN3CCCC3)c2C2CCN(C(=O)OC(C)(C)C)CC2)cc1 -2.01%
